Laboratory results from patent US11000038B2, “Pyridone compounds and agricultural and horticultural fungicides containing the same as active ingredients” (priority 2017, dated 2021).

Columns and labels:
[1] = test system: tomato late blight fungi (Phytophthora infestans); type: in vivo; details: tomato late blight, spray treatment
[2] = test system: cucumber anthracnose fungi (Colletotrichum orbiculare); experiment: Test Example H: cucumber anthracnose, spray treatment of cucumber plants; details: cucumber anthracnose, 250 ppm spray, 6 to 10 days after inoculation
[3] = test system: rice blast fungi (Magnaporthe grisea); type: in vivo; details: rice blast, spray treatment

Compound | Test F control value [1] | Test H control value [2] | Test A control value [3]
Cc1c(F)cccc1-n1cc(Br)c(=O)c(C)c1-c1ccccc1 [Compound 412] | L (L shows the control value of 50% or less) | L (L shows the control value of 50% or less) | L (L shows the control value of 50% or less)
Cc1c(F)cccc1-n1cc(Br)c(=O)c(Cl)c1-c1ccccc1 [Compound 413] | L (L shows the control value of 50% or less) | L (L shows the control value of 50% or less) | L (L shows the control value of 50% or less)
COc1cc(-n2cc(Br)c(=O)c(Cl)c2-c2ccccc2)c(C)cc1Br [Compound 414] | L (L shows the control value of 50% or less) | L (L shows the control value of 50% or less) | L (L shows the control value of 50% or less)
Cc1c(-c2ccccc2)n(-c2cc(F)ccc2Cl)cc(Br)c1=O [Compound 415] | L (L shows the control value of 50% or less) | H (H shows the control value of more than 50%) | H (H shows the control value of more than 50%)
Cc1cn(-c2cc(F)ccc2Cl)c(-c2ccccc2)c(C)c1=O [Compound 416] | L (L shows the control value of 50% or less) | H (H shows the control value of more than 50%) | L (L shows the control value of 50% or less)
O=c1c(Br)cn(-c2cc(F)ccc2Cl)c(-c2ccccc2)c1Cl [Compound 417] | L (L shows the control value of 50% or less) | H (H shows the control value of more than 50%) | L (L shows the control value of 50% or less)
O=c1c(Br)cn(-c2cc(F)ccc2Cl)c(-c2ccccc2)c1Br [Compound 418] | L (L shows the control value of 50% or less) | H (H shows the control value of more than 50%) | L (L shows the control value of 50% or less)
Cc1c(O)cccc1-n1cc(Br)c(=O)c(Br)c1-c1c(F)cc(F)cc1F [Compound 419] | L (L shows the control value of 50% or less) | H (H shows the control value of more than 50%) | L (L shows the control value of 50% or less)
Cc1c(-n2cc(Cl)c(=O)c(Cl)c2-c2c(F)cc(F)cc2F)cccc1[N+](=O)[O-] [Compound 420] | L (L shows the control value of 50% or less) | H (H shows the control value of more than 50%) | L (L shows the control value of 50% or less)
Cc1c(N)cccc1-n1cc(Cl)c(=O)c(Cl)c1-c1c(F)cc(F)cc1F [Compound 421] | L (L shows the control value of 50% or less) | L (L shows the control value of 50% or less) | L (L shows the control value of 50% or less)
CCOc1cccc(-n2cc(Br)c(=O)c(Br)c2-c2c(F)cc(F)cc2F)c1C [Compound 422] | L (L shows the control value of 50% or less) | H (H shows the control value of more than 50%) | H (H shows the control value of more than 50%)
CCCOc1cccc(-n2cc(Br)c(=O)c(Br)c2-c2c(F)cc(F)cc2F)c1C [Compound 423] | L (L shows the control value of 50% or less) | H (H shows the control value of more than 50%) | L (L shows the control value of 50% or less)
CC(=O)Nc1cccc(-n2cc(Cl)c(=O)c(Cl)c2-c2c(F)cc(F)cc2F)c1C [Compound 424] | L (L shows the control value of 50% or less) | L (L shows the control value of 50% or less) | H (H shows the control value of more than 50%)
Cc1c(-n2cc(C)c(=O)c(C)c2-c2c(F)cc(F)cc2F)ccc(Br)c1[N+](=O)[O-] [Compound 425] | L (L shows the control value of 50% or less) | L (L shows the control value of 50% or less) | H (H shows the control value of more than 50%)
Cc1ccc(O)cc1-n1cc(Br)c(=O)c(Cl)c1-c1c(F)cccc1F [Compound 426] | L (L shows the control value of 50% or less) | L (L shows the control value of 50% or less) | L (L shows the control value of 50% or less)
COCOc1ccc(C)c(-n2cc(Br)c(=O)c(Cl)c2-c2c(F)cccc2F)c1 [Compound 427] | H (H shows the control value of more than 50%) | H (H shows the control value of more than 50%) | H (H shows the control value of more than 50%)
Cc1ccc(OCC#N)cc1-n1cc(Br)c(=O)c(Cl)c1-c1c(F)cccc1F [Compound 428] | H (H shows the control value of more than 50%) | H (H shows the control value of more than 50%) | H (H shows the control value of more than 50%)

Compound | Test F control value [1] | Test H control value [2] | Test A control value [3]
C#CCOc1ccc(C)c(-n2cc(Br)c(=O)c(Cl)c2-c2c(F)cccc2F)c1 [Compound 429] | L (L shows the control value of 50% or less) | H (H shows the control value of more than 50%) | H (H shows the control value of more than 50%)
C=CCOc1ccc(C)c(-n2cc(Br)c(=O)c(Cl)c2-c2c(F)cccc2F)c1 [Compound 430] | L (L shows the control value of 50% or less) | H (H shows the control value of more than 50%) | H (H shows the control value of more than 50%)
COCCOc1ccc(C)c(-n2cc(Br)c(=O)c(Cl)c2-c2c(F)cccc2F)c1 [Compound 431] | L (L shows the control value of 50% or less) | H (H shows the control value of more than 50%) | L (L shows the control value of 50% or less)
CCOCOc1ccc(C)c(-n2cc(Br)c(=O)c(Cl)c2-c2c(F)cccc2F)c1 [Compound 432] | L (L shows the control value of 50% or less) | H (H shows the control value of more than 50%) | H (H shows the control value of more than 50%)
CCOc1ccc(C)c(-n2cc(Br)c(=O)c(Cl)c2-c2c(F)cccc2F)c1 [Compound 433] | L (L shows the control value of 50% or less) | H (H shows the control value of more than 50%) | L (L shows the control value of 50% or less)
Cc1ccc(OC(C)C)cc1-n1cc(Br)c(=O)c(Cl)c1-c1c(F)cccc1F [Compound 434] | L (L shows the control value of 50% or less) | L (L shows the control value of 50% or less) | L (L shows the control value of 50% or less)
COc1ccc(C)c(-n2cc(C)c(=O)c(C)c2-c2ccccc2)c1 [Compound 435] | L (L shows the control value of 50% or less) | H (H shows the control value of more than 50%) | H (H shows the control value of more than 50%)
COc1cccc(-n2cc(Cl)c(=O)c(Br)c2-c2c(F)cc(F)cc2F)c1C [Compound 436] | H (H shows the control value of more than 50%) | H (H shows the control value of more than 50%) | H (H shows the control value of more than 50%)
Cc1c(F)cccc1-n1cc(C)c(=O)c(C)c1-c1c(F)cc(F)cc1F [Compound 437] | L (L shows the control value of 50% or less) | H (H shows the control value of more than 50%) | H (H shows the control value of more than 50%)
Cc1c(OCC(C)C)cccc1-n1cc(Br)c(=O)c(Br)c1-c1c(F)cc(F)cc1F [Compound 438] | L (L shows the control value of 50% or less) | L (L shows the control value of 50% or less) | L (L shows the control value of 50% or less)
Cc1cn(-c2ccccc2Cl)c(-c2c(F)cc(F)cc2F)c(C)c1=O [Compound 439] | L (L shows the control value of 50% or less) | H (H shows the control value of more than 50%) | H (H shows the control value of more than 50%)
COc1cc(F)c(-c2c(C)c(=O)c(C)cn2-c2cccc(F)c2C)c(F)c1 [Compound 440] | L (L shows the control value of 50% or less) | H (H shows the control value of more than 50%) | H (H shows the control value of more than 50%)
Cc1cn(-c2ccccc2)c(-c2c(F)cc(F)cc2F)c(C)c1=O [Compound 441] | L (L shows the control value of 50% or less) | H (H shows the control value of more than 50%) | H (H shows the control value of more than 50%)
COc1cc(F)c(-c2c(C)c(=O)c(C)cn2-c2ccccc2Cl)c(F)c1 [Compound 442] | L (L shows the control value of 50% or less) | H (H shows the control value of more than 50%) | H (H shows the control value of more than 50%)
CCCc1ccccc1-n1cc(Br)c(=O)c(Cl)c1-c1c(F)cc(F)cc1F [Compound 443] | L (L shows the control value of 50% or less) | H (H shows the control value of more than 50%) | H (H shows the control value of more than 50%)
CCCc1ccccc1-n1cc(Br)c(=O)c(Br)c1-c1c(F)cc(F)cc1F [Compound 444] | L (L shows the control value of 50% or less) | H (H shows the control value of more than 50%) | H (H shows the control value of more than 50%)
